The campaign covered roughly 71,000 compounds. About 1,400 (2%) were called active. The shares of active, inactive and inconclusive entries below differ from those in the screen. The call rests on the fitted dose curve; in most records, active means well fitted curve in the direction sought with a large enough effect; inconclusive means small, poorly fitted or top-dose-only effect; inactive means no such curve, though single readings can be large or run the other way. Potencies beside an inconclusive call are fits to weak or partial responses and may not hold up. The source holds several records for some structures; these can differ, active in one and inactive in another.
The compounds below were run against Microtubule-associated protein tau (Homo sapiens) (UniProt P10636) (assay: qHTS Assay for Tau Filament Binding). Conditions: recombinant tau filaments, thioflavin S fluorescence, 15 h; series mostly up to 57.1 µM; activity change, negative = inhibition: at the top concentration.
Method in brief: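 His-tagged recombinant human tau (exons 2, 3, 10; 1 uM final) fibrillized with 30 uM sodium octadecylsulfate, 15 h at 37 C, in pH 7.4 HEPES buffer with 10 uM thioflavine S and 5 mM DTT. Reduced ThS fluorescence (450/510 nm) marks activity.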
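Further: actives lower thioflavin S fluorescence by blocking filaments or displacing dye.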
On the % scale 0 is the no-effect control and ±100 the full control effect; potency means the concentration at half of the fitted maximal effect.

UniProt P10636, sequence (P10636 whole entry, looked up): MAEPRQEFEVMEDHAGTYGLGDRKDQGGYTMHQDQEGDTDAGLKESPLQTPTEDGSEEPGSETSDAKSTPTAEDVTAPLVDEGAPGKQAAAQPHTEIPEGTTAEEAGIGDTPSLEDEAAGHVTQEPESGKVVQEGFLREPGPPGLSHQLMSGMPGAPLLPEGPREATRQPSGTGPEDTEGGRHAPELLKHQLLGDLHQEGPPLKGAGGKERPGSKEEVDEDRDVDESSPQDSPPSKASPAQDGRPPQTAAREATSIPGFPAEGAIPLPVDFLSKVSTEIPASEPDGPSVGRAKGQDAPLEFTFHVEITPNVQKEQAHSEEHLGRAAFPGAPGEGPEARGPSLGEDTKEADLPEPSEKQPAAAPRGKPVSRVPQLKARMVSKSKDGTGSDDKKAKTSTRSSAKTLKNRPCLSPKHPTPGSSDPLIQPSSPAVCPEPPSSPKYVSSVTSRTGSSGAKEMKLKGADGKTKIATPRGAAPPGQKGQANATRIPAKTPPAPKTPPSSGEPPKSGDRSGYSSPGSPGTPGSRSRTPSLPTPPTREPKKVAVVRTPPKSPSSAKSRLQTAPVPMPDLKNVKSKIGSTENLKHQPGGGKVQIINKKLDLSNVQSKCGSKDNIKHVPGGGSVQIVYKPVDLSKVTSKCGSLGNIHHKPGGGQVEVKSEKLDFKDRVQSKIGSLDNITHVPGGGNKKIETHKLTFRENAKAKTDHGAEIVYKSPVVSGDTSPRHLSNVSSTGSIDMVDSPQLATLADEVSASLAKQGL

SMILES	Potency	activity change, negative = inhibition
CC1(C)N(O)C(c2ccc(C(=O)O)cc2)=[N+]([O-])C1(C)C	inconclusive: 39.8 µM [decreasing]	–
CN(C)[C@@H]1C(=O)C(C(N)=O)=C(O)[C@]2(O)C(=O)C3=C(O)c4c(O)cccc4[C@@](C)(O)[C@@H]3C[C@@H]12	inconclusive: 39.8 µM [decreasing]	–
NC[C@@H](CC(=O)O)c1ccc(Cl)cc1	inconclusive: 39.8 µM [decreasing]	–
CC1=NN(c2ccccc2)C(=O)[C@@H]1N=Nc1ccc([As](=O)(O)O)c(O)c1	active: 3.16 µM [filaments grown with octadecylsulfate alongside compound]	–
CC1CCCCN1CC(=O)c1ccc2cc[nH]c2c1 (centres undefined)	active: 25.1 µM	–
c1ccc(C[N+]23CN4CN(CN(C4)C2)C3)cc1	–	inactive: 6.1% [at 11.4 µM]
O=C1NC(=O)[C@]2(Cc3ccccc3N3CCN(c4ccccc4)CC32)C(=O)N1Cc1ccccc1 (some centres undefined)	inconclusive: 31.6 µM [decreasing]	–
CC1=NN=C(c2ccc(N)cc2)c2cc3c(cc2C1)OCO3	active: 31.6 µM	–
O=[As](O)(O)c1ccc(N=Nc2ccc([As](=O)(O)O)cc2)cc1	–	inactive: -2.8% [at 11.4 µM]
Clc1ccc(C2=CCC[C@H]3CC[C@@H]2N3)cn1	inconclusive: 39.8 µM [decreasing] [filaments grown with octadecylsulfate alongside compound]	–
CN(C(=O)Cc1ccccc1)[C@H](CN1CCCC1)c1ccccc1	inconclusive: 39.8 µM [decreasing]	–
CC(=O)O[C@@H]1CN2CCC1CC2	inconclusive: 39.8 µM [decreasing]	–
C=C[C@@H]1CN2CC[C@@H]1C[C@H]2[C@H](O)c1ccnc2ccccc12	inconclusive: 39.8 µM [decreasing] [filaments grown with octadecylsulfate alongside compound]	–
C[C@](N)(CCP(=O)(O)O)C(=O)O	inconclusive: 39.8 µM [decreasing] [filaments grown with octadecylsulfate alongside compound]	–
COc1cc2c(cc1OC)-c1c(OC)c(OC)c(CO)c3c1[C@H](C2)N(C)CC3	inconclusive: 39.8 µM [decreasing] [filaments grown with octadecylsulfate alongside compound]	–
CC(=O)N1CCN(c2ccc(N=Cc3c(O)n(-c4ccc(Cl)cc4)c(=O)[nH]c3=O)cc2)CC1	inconclusive: 31.6 µM [decreasing]	–
CCCn1c(C)c(C(=O)c2cccc3ccccc23)c2ccccc21	inconclusive: 39.8 µM [decreasing]	–
COC(=O)c1c(N)n(Cc2ccc(OC)cc2)c2nc3ccccc3nc12	inconclusive: 20 µM [decreasing]	–
CCCN[C@@H]1CCc2c(OC)cccc2[C@@H]1C	inconclusive: 39.8 µM [decreasing] [filaments grown with octadecylsulfate alongside compound]	–
CN[C@H]1[C@H]2[C@H]3CCN2C[C@@H]1O3	inconclusive: 39.8 µM [decreasing]	–
c1ccc2sc(C3(N4CCCCC4)CCCCC3)cc2c1	inconclusive: 39.8 µM [decreasing]	–
O=C1C2CCN(CC2)C1(CO)CO	inconclusive: 39.8 µM [decreasing]	–

SMILES	Potency	activity change, negative = inhibition
CN[C@@H]1C[C@H](c2ccc(Cl)c(Cl)c2)c2ccccc21	inconclusive: 25.1 µM [decreasing]	–
COc1cc2c(cc1O)C[C@H]1c3c(cc(O)c(OC)c3-2)CCN1C	active: 39.8 µM	–
C=CCn1c(O)c(C(CC)=NCCCO)c(=O)[nH]c1=O	–	inactive: -2.4%
COc1cc2c(cc1OC)-c1c(OC)c(OC)cc3c1C(C2)N(C)CC3 (centres undefined)	inconclusive: 31.6 µM [decreasing]	–
C[C@@H]1[C@H]2C=C[C@@H]1[C@@H](c1c3ccc(=O)c(O)c-3oc3c(O)c(O)ccc13)[C@@H]2C(=O)O	inconclusive: 3.16 µM [decreasing]	–
CCCCC/C=C\C/C=C\C/C=C\C/C=C\CCCC(=O)NCC(=O)O	–	inactive: 31.9%
c1ccc2c(c1)Sc1ccccc1N2C[C@H]1CN2CCC1CC2	active: 1.58 µM [filaments grown with octadecylsulfate alongside compound]	–
COc1cc2c(cc1O)CCN[C@H]2C	inconclusive: 39.8 µM [decreasing]	–
C[C@@H](O)CN(CCN(C[C@@H](C)O)C[C@@H](C)O)C[C@@H](C)O.O=[N+]([O-])O.[Cu]	inconclusive: 6.31 µM [decreasing]	–
NN=C(N)N	inconclusive: 39.8 µM [decreasing]	–
O=C(O)[C@@H]1C[C@H]2C[C@@H](CP(=O)(O)O)CC[C@H]2CN1	active: 31.6 µM	–
CC(=O)[O][Hg][c]1ccccc1	–	inactive: -3.5%
O=c1ccc2[nH]cc(C3=CCNCC3)c2[nH]1	inconclusive: 39.8 µM [decreasing] [filaments grown with octadecylsulfate alongside compound]	–
O[C@H]1CCCC[C@H]1N1CCC(c2ccccc2)CC1	inconclusive: 39.8 µM [decreasing]	–
CC(C)(c1ccc(OC[C@@H]2CO2)cc1)c1ccc(OC[C@H]2CO2)cc1	inconclusive: 39.8 µM [decreasing]	–
COc1cccc2c1cc([N+](=O)[O-])c1c(C(=O)O)cc3c(c12)OCO3	inconclusive: 39.8 µM [decreasing] [filaments grown with octadecylsulfate alongside compound]	–
CCCCCCCCCCCC[N+](C)(C)CCOc1ccccc1	inconclusive: 39.8 µM [decreasing]	–
CC1(C)CN=C(NCc2ccccc2Cl)S1	active: 25.1 µM	–
CN1CCN(c2ccc(N)c(N3CCN(C)CC3)c2)CC1	active: 20 µM	–
COc1cc2c(c(OC)c1OC)-c1ccc(O)c(=O)cc1[C@H](N)CC2	inconclusive: 1.26 µM [decreasing] [filaments grown with octadecylsulfate alongside compound]	–
CNCC/C=C\c1cccnc1	inconclusive: 39.8 µM [decreasing] [filaments grown with octadecylsulfate alongside compound]	–
c1cc2c(cc1[C@H]1OC[C@H]3[C@@H]1CO[C@H]3c1ccc3c(c1)OCO3)OCO2	inconclusive: 39.8 µM [decreasing]	–

SMILES	Potency	activity change, negative = inhibition
Nc1ccc(-c2ccc(N)cc2)cc1	inconclusive: 39.8 µM [decreasing] [filaments grown with octadecylsulfate alongside compound]	–
CN1[C@@H]2CC[C@H]1CC(OC(c1ccc(F)cc1)c1ccc(F)cc1)C2 (some centres undefined)	inconclusive: 39.8 µM [decreasing]	–
CN1CCN(c2ccc3ccccc3n2)CC1	inconclusive: 39.8 µM [decreasing] [filaments grown with octadecylsulfate alongside compound]	–
NC[C@H](CS(=O)(=O)O)c1ccc(Cl)cc1	inconclusive: 39.8 µM [decreasing]	–
Oc1ccc2c3c1O[C@H]1c4oc5ccccc5c4C[C@]4(O)[C@H](C2)N(CC2CC2)CC[C@@]314	inconclusive: 39.8 µM [decreasing]	–
c1ccc2c(CCNCc3ccc4c(c3)OCO4)c[nH]c2c1	inconclusive: 31.6 µM [decreasing]	–
NCCc1c[nH]c2ccc(C(N)=O)cc12	inconclusive: 39.8 µM [decreasing]	–
C=CCn1c(O)c(C(C)=Nc2ccc(N(CC)CC)cc2)c(=O)[nH]c1=O	active: 15.8 µM	–
c1ccc(N2CCCC3(CCNCC3)C2)cc1	inconclusive: 20 µM [decreasing] [filaments grown with octadecylsulfate alongside compound]	–
N[C@@H](Cn1cc(I)c(=O)[nH]c1=O)C(=O)O	inconclusive: 39.8 µM [decreasing]	–
c1ccc(N=NNc2ccccc2)cc1	inconclusive: 39.8 µM [decreasing]	–
CCN1C[C@@]2(C)CC[C@H](O)[C@@]34[C@@H]5C[C@H]6[C@H](O)[C@@H]5[C@](O)(C[C@@H]6OC)[C@H](C[C@@H]23)[C@H]14	inconclusive: 39.8 µM [decreasing]	–
CN1CCN(CC(=O)Nc2ccc(Cl)cc2C(=O)c2ccccc2)CC1	inconclusive: 31.6 µM [decreasing] [filaments grown with octadecylsulfate alongside compound]	–
CC1CCC(NCCc2ccc3c(c2)OCO3)CC1 (centres undefined)	inconclusive: 25.1 µM [decreasing]	–
N[C@H](CCP(=O)(O)O)C(=O)O	inconclusive: 39.8 µM [decreasing]	–
COc1ccc(C[C@H]2c3cc(OC)c(OC)cc3CCN2C)cc1OC	inconclusive: 39.8 µM [decreasing]	–
Nc1c(C(=O)OCC2CCCO2)c2nc3ccccc3nc2n1Cc1cccs1 (centres undefined)	inconclusive: 31.6 µM [decreasing]	–
Nc1ccc(N2CCN(Cc3ccccc3Cl)CC2)c(Cl)c1	active: 25.1 µM	–
COc1cc2c(cc1O)-c1c(O)c(OC)cc3c1[C@H](C2)N(C)CC3	inconclusive: 39.8 µM [decreasing] [filaments grown with octadecylsulfate alongside compound]	–
CP(=O)(O)CCCN	inconclusive: 39.8 µM [decreasing] [filaments grown with octadecylsulfate alongside compound]	–

Reference: PubChem BioAssay AID596 (National Center for Advancing Translational Sciences (NCATS), 2007)
